The supplement of paper PMC3334620
Whole data set: some 33,000 sequences, median “E-score (-0.5 to 0.5)” near -0.036, cut for the highest 2% near 0.37. This is one part of the list.

These sequences were tested against T1, Yer064c (UniProt P40041) (assay: PBM E-score (8-mer binding enrichment) (E-score (-0.5 to 0.5)); higher = stronger / more preferred TF binding; most listed sequences are background and not binding sites). Details: protein concentration: 200 nM; construct: GST-full length.
T1 sequence: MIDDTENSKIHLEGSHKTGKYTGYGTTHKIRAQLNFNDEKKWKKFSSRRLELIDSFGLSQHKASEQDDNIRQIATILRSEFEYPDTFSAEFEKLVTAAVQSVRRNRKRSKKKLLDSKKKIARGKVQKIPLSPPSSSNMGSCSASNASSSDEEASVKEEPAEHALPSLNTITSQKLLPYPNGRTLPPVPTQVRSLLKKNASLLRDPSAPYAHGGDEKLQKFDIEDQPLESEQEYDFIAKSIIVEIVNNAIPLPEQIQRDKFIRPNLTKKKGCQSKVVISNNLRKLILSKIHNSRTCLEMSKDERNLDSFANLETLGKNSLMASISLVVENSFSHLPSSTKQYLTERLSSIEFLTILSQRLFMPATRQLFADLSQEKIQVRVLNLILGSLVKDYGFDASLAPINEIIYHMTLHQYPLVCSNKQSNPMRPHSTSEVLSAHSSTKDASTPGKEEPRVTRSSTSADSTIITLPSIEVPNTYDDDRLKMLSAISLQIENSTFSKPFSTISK
Outline: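 Using PURExpress in vitro transcription/translation, GST-tagged yeast transcription factors were made in full-length or DNA-binding-domain form. These were applied at about 100-200 nM to double-stranded universal all-10-mer Agilent arrays, and bound protein was detected with fluorescent anti-GST. Scans were normalised with masliner before the Universal PBM Analysis Suite assigned E-scores to ungapped eight-base words pooled with their reverse complements.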

| Sequence | PBM E-score |
| --- | --- |
| CGTGTTCA | 0.103 |
| GGTGGTGA | 0.12 |
| AATATACA | 0.197 |
| TAACCTTA | 0.0118 |
| ATGTCCCC | -0.0719 |
| CACTCACC | 0.207 |
| AAGGCTCT | -0.308 |
| AGTCCCCC | 0.0093 |
| AGAAGAAT | 0.176 |
| ATTACTTC | 0.0758 |
| CCTTTGGA | -0.121 |
| CTCTTAAA | 0.172 |
| AGGATAGA | 0.0149 |
| AGATCCCC | -0.241 |
| CCTAATCA | 0.376 |
| CTTATATC | -0.128 |
| AGCCCATG | -0.0315 |
| AGTCTCGG | 0.215 |
| ATGGCATA | -0.165 |
| CGACTATA | 0.374 |
| ACACACGA | 0.112 |
| AGCCCTAA | -0.0734 |

| Sequence | PBM E-score |
| --- | --- |
| CTATCCAC | -0.0341 |
| ACTGGATC | -0.111 |
| CGCCACTC | -0.189 |
| CAGATCAG | 0.0284 |
| ATACTGCA | -0.0463 |
| AAAGCGCC | -0.135 |
| AAATGAAT | 0.164 |
| AGATAATA | 0.0934 |
| CGTTCCTA | -0.114 |
| AAACGTGG | -0.088 |
| AGAGAAAT | -0.178 |
| GAGGTGCA | -0.0942 |
| GCTCCTAA | -0.241 |
| AGGATCCC | -0.289 |
| GCAACTGA | 0.0985 |
| GCTCAGAA | 0.0465 |
| GTCGGAAC | -0.09 |
| GGTCAAAC | -0.185 |
| CCCTCGCA | -0.135 |
| ACACGCAG | -0.0457 |
| GGGATAAA | -0.0655 |
| CCTTTTGC | -0.226 |

| Sequence | PBM E-score |
| --- | --- |
| ACTTTAAG | 0.162 |
| GCATCCGC | -0.171 |
| ACGCCTGC | -0.265 |
| ATCGGCCC | -0.00527 |
| CCTCACTA | -0.111 |
| AAACAGAA | -0.0269 |
| TATTAGGA | 0.189 |
| CTTCCAGA | -0.0775 |
| AATTCCAA | -0.0347 |
| CGGCGTAA | 0.0756 |
| CTCATACA | 0.184 |
| GCATGTGA | 0.0949 |
| GTCGCATA | 0.268 |
| ATGGGTCG | 0.0389 |
| GACATGCA | -0.115 |
| CGACAGCA | -0.163 |
| CGACCTTC | -0.201 |
| AGGCCTTC | -0.231 |
| ACCTGAGT | 0.29 |
| AGATACAG | -0.12 |
| ACTGGCAG | 0.00876 |
| GATCTCGA | 0.0378 |

| Sequence | PBM E-score |
| --- | --- |
| AGGACGAT | 0.149 |
| GGACGGTA | -0.23 |
| CGCGCATA | -0.123 |
| CACGCGAC | -0.0364 |
| AGGAACCG | -0.139 |
| ATCGGAAT | 0.0595 |
| GCCTGTCA | -0.095 |
| ACATAAGG | -0.0737 |
| CCTCTGGA | -0.129 |
| AACTGACG | -0.198 |
| CCGTTCGC | -0.00342 |
| AAGCAACC | -0.155 |
| ACACCCTA | 0.0696 |
| CACATAAC | 0.0804 |
| AGTTGAAG | 0.127 |
| CCGCAGCC | -0.141 |
| GGTTACTA | -0.0192 |
| AACACATC | 0.206 |
| AGAGCGCT | -0.188 |
| ATCCGACG | 0.0248 |
